From PMC4336329 (PLoS ONE, 2015)
Screen size: about 310,000 compounds; about 2,200 (0.71%) showed an effect of 50% or more. The effect is printed as a negative number. The list shows a part of the results.

Biological target: human ether-à-go-go-related gene (hERG) potassium channel (human, UniProt Q12809)
Test: primary screen, population patch clamp on CHO cells stably expressing hERG

Chain of human ether-à-go-go-related gene (hERG) potassium channel (Q12809 whole entry, looked up): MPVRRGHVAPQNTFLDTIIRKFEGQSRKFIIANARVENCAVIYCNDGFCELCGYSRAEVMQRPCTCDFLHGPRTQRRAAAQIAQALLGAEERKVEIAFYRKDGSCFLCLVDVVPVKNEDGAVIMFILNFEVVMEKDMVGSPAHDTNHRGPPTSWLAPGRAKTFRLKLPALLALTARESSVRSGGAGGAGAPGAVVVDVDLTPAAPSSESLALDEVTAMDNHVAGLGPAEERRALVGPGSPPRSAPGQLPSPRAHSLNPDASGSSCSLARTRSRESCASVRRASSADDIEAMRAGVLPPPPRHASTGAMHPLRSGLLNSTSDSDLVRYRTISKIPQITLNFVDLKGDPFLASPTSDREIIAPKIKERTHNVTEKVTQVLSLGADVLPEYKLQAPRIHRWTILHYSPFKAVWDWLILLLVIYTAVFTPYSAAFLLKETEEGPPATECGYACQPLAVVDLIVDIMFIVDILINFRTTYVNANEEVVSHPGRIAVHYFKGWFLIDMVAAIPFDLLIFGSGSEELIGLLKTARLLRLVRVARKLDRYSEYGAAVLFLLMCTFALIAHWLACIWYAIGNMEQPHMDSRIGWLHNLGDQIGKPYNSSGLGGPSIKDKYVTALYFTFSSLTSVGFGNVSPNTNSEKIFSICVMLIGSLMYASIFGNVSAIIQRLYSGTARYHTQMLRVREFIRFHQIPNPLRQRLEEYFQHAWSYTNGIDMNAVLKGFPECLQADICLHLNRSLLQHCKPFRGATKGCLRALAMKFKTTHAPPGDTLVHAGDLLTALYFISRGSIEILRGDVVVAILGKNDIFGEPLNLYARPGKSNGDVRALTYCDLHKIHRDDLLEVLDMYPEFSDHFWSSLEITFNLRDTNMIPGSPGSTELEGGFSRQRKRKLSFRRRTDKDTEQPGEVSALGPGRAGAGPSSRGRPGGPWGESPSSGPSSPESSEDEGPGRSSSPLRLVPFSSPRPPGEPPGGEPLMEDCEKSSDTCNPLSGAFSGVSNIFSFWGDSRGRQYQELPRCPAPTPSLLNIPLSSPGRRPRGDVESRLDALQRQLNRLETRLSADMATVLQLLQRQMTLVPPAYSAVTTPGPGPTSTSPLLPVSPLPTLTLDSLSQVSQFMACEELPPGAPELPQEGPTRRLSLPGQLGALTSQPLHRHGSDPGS

First: Cc1ccccc1OCCCn1c(CO)nc2ccccc21
Second: COc1ccccc1OCC(=O)N/N=C1/SCC(=O)N1Cc1ccccc1
The “hERG current change (%, negative = inhibition) at 1uM” value of the first is lower: 5% for the first, 6.48% for the second.

Compared with `Cc1cc(C)c2c(=O)[nH]c(SCC(=O)c3ccc(F)c(C)c3)nc2n1`, `COCCCN1C(=O)c2ccc(C(=O)Nc3ccc(C)cc3C)cc2C1=O` is lower in “hERG current change (%, negative = inhibition) at 1uM” value: 11.9% for the first, 10.1% for the second.

First: COc1ccc(CNC(=O)CCS(=O)(=O)Cc2ccc(C)cc2)c(OC)c1
Second: COc1ccc(CCNC(=O)C2CCCN2C(=O)Nc2ccc(C)cc2)cc1OC (stereo not drawn)
The “hERG current change (%, negative = inhibition) at 1uM” value of the first is lower: 1.49% for the first, 8.53% for the second.

Going from `C=CCn1c(C)cc(C(=O)COc2ncnc3sccc23)c1C` to `COc1ccc(C(N)=O)c(OCC(=O)Nc2cc(C)on2)c1`, the “hERG current change (%, negative = inhibition) at 1uM” value rises from 1.47% to 5.35%.

Compared with `Cl.O=C(CSC1=NCCN1)NC12CC3CC(CC(C3)C1)C2`, `Cc1ccc(SCC(=O)NNC(=O)C2CCCCC2)cc1` is higher in “hERG current change (%, negative = inhibition) at 1uM” value: -0.0963% for the first, 0.591% for the second.

First: COc1cccc(NC(=O)CCN2C(=O)c3ccc([N+](=O)[O-])cc3C2=O)c1
Second: COc1cccc(NC(=O)COC(=O)CC(NC(N)=O)c2ccc(Cl)cc2)c1 (stereo not drawn)
The “hERG current change (%, negative = inhibition) at 1uM” value of the first is higher: 15.8% for the first, 5.86% for the second.

Compared with `COc1ccccc1C(=O)N/C(=C/c1ccc2c(c1)OCO2)C(=O)Nc1cccc(C(=O)O)c1`, `COC(=O)c1ccccc1NC(=O)c1cc([N+](=O)[O-])nn1Cc1ccccc1` is higher in “hERG current change (%, negative = inhibition) at 1uM” value: -4.72% for the first, 5.08% for the second.

First: CC1CN(C(=O)c2cccc(S(=O)(=O)NCc3ccccc3)c2)CC(C)O1 (stereo not drawn)
Second: CC(C)(C)NC(=O)Cn1c(=O)c(=O)n(Cc2ccccc2)c2ccc(Cl)cc21
The “hERG current change (%, negative = inhibition) at 1uM” value of the first is higher: 7.93% for the first, 7.81% for the second.

First: CC(NC(=O)Nc1ccccc1)C(c1cccs1)N1CCOCC1 (stereo not drawn)
Second: C[C@H](NC(=O)c1nc[nH]c1C(=O)N1CCN(c2ccccc2)CC1)C(=O)OCc1ccccc1
The “hERG current change (%, negative = inhibition) at 1uM” value of the first is lower: 7.03% for the first, 10.1% for the second.

First: O=P(O)(C(O)c1ccccc1)C(O)c1ccccc1 (stereo not drawn)
Second: Oc1ccccc1-c1csc(-c2ccccc2)n1
The “hERG current change (%, negative = inhibition) at 1uM” value of the first is higher: 12.4% for the first, 9.18% for the second.

Going from `Cc1cc2cc(CNC(=O)c3ccc(S(=O)(=O)N4CCOCC4)cc3)ccc2[nH]1` to `CC(=O)c1sc(NC(=O)c2cc(S(=O)(=O)N3CCOCC3)ccc2F)nc1C`, the “hERG current change (%, negative = inhibition) at 1uM” value rises from 5.8% to 9.09%.

First: CCOc1ccc(Oc2cc(C)nc(SC)n2)nn1
Second: CCOc1nc(C)ccc1-c1noc(-c2ccccn2)n1
The “hERG current change (%, negative = inhibition) at 1uM” value of the first is higher: 9.29% for the first, 2.91% for the second.

Going from `COc1ccc(CC(=O)NCc2n[nH]c(=S)n2C)cc1` to `O=C(COc1ccc([N+](=O)[O-])cc1)NCCc1nc2ccccc2[nH]1`, the “hERG current change (%, negative = inhibition) at 1uM” value falls from 7.17% to -5.14%.

Going from `COc1ccc(NC(=O)CN(C)C(=O)c2ccc(N3CCCC3)c([N+](=O)[O-])c2)cc1` to `CC(=O)c1ccc(N2CCN(CC(=O)Nc3ccc4c(c3)OCCO4)CC2)cc1`, the “hERG current change (%, negative = inhibition) at 1uM” value rises from -20% to 2.42%.

First: Cc1cc(-c2cccc(Br)c2)c(C#N)c(N)n1
Second: Cc1nc(N)[nH]c(=O)c1Oc1cccc(C(F)(F)F)c1
The “hERG current change (%, negative = inhibition) at 1uM” value of the first is higher: 15.7% for the first, 8.98% for the second.

Compared with `COc1ccc(OC)c(NC(=O)C2C3C=CC(C3)C2C(=O)NCc2ccccn2)c1` (stereo not drawn), `COc1ccc(Cl)cc1NC(=O)CN(C)C(=O)CSc1ccc2c(c1)OCCO2` is lower in “hERG current change (%, negative = inhibition) at 1uM” value: 15.7% for the first, 6.73% for the second.

Going from `O=C(/C=C/Nc1ccc(F)cc1)c1cccs1` to `O=C(CCn1c(=O)c2cccn2c2ccccc21)Nc1ccc(F)cc1`, the “hERG current change (%, negative = inhibition) at 1uM” value falls from 14.2% to -5.92%.

Compared with `COc1ccc2c(C(=O)CN3CCN(c4ccccc4)CC3)c[nH]c2c1`, `Cn1c(=O)c2cc(S(=O)(=O)N3CCC(c4ccccc4)CC3)ccc2n(C)c1=O` is higher in “hERG current change (%, negative = inhibition) at 1uM” value: -14.4% for the first, 5.82% for the second.

Going from `O=C(OCCCOC(=O)c1ccc(Br)o1)c1ccc(Br)o1` to `O=C(COC(=O)CCC1CCCC1)NCc1ccc(Cl)cc1`, the “hERG current change (%, negative = inhibition) at 1uM” value rises from -3.62% to 13.7%.

Going from `O=S(=O)(NCCN1CCCC1)c1ccc(Cl)cc1` to `COC(=O)c1cccc(CSC(=S)N2CCCC2)c1`, the “hERG current change (%, negative = inhibition) at 1uM” value falls from 11.6% to 7.05%.

Going from `CC(C)[N+]12CCC(CC1)C(C(O)(c1ccccc1)c1ccccc1)C2.[I-]` (stereo not drawn) to `CCC1(c2ccccc2)NC(=O)N(Cc2cccc([N+](=O)[O-])c2)C1=O` (stereo not drawn), the “hERG current change (%, negative = inhibition) at 1uM” value falls from 15.7% to 0.113%.

Going from `Cc1ccc(NCCC(=O)c2ccc(Cl)c(Cl)c2)cc1` to `Nc1ccccc1C(=O)Nc1ccc(Cl)cc1Cl`, the “hERG current change (%, negative = inhibition) at 1uM” value rises from 5.27% to 20%.

Going from `Nc1ccc2nc3c(=O)n(CCc4ccccc4)c(=O)[nH]c3nc2c1` to `Cc1ccc(S(=O)(=O)Nc2c(C)nc3nc(C)[nH]n3c2=O)cc1`, the “hERG current change (%, negative = inhibition) at 1uM” value rises from 8.93% to 19%.

First: Cc1c(NC(=O)C2CCCO2)cccc1[N+](=O)[O-] (stereo not drawn)
Second: CC(=O)C1C(=O)c2c(cccc2[N+](=O)[O-])C1=Nc1cccc(Cl)c1 (stereo not drawn)
The “hERG current change (%, negative = inhibition) at 1uM” value of the first is higher: 13.1% for the first, 9.7% for the second.

Compared with `Cc1ccc(-n2c(C)nn(CC#N)c2=O)cc1`, `Cc1ccccc1OCC(=O)N(Cc1nnc(-c2ccc(Cl)cc2)o1)C(C)C` is lower in “hERG current change (%, negative = inhibition) at 1uM” value: 15.4% for the first, -6.18% for the second.

Going from `O=c1cnnc(Nc2cccc(F)c2)[nH]1` to `CS(=O)(=O)c1sc(C#N)c2c1C(=O)CC(c1ccccc1)C2` (stereo not drawn), the “hERG current change (%, negative = inhibition) at 1uM” value falls from 17.8% to 12.7%.

Compared with `CC(C)(C)CN1CCNC(=O)C1CC(=O)NC1Cc2ccccc2C1` (stereo not drawn), `COc1cccc(CC(=O)OCC(=O)NC2(C#N)CCCCC2)c1` is higher in “hERG current change (%, negative = inhibition) at 1uM” value: 9.84% for the first, 14.8% for the second.

First: N=c1c2c3c(sc2ncn1N)CCCCC3
Second: CCN(CC)CCN(C(=O)c1cc2c(ccc3ccccc32)oc1=O)c1nc2cc3c(cc2s1)OCCO3.Cl
The “hERG current change (%, negative = inhibition) at 1uM” value of the first is lower: 1.16% for the first, 10.9% for the second.

With `COc1cc(/C=N/NC(=S)NC(C)C)ccc1OCC(=O)Nc1c(C)cc(C)cc1C` the “hERG current change (%, negative = inhibition) at 1uM” value was 9.99%.
